Data reported in PubChem BioAssay AID1671194 (National Center for Advancing Translational Sciences (NCATS), 2021).
In all, about 140,000 compounds went through this assay and about 240 (0.17%) were called active. The inconclusive results got no clear call from the source; some entries with a clear call stand among them for comparison. Calls come from the whole dose curve; as a rule, active = well fitted inhibition curve with a large enough effect; inconclusive = small, poorly fitted or top-dose-only effect; inactive = no such curve, though single readings can be large or run the other way. A potency beside an inconclusive call is a rough fit, not a confirmed value.

assay: Primary qHTS assay for inhibitors of alpha-synuclein gene (SNCA) expression; details: HEK-293 SNCA-luciferase knock-in, luminescence, 24 h; series mostly up to 57.2 µM; note: nearly all actives have a fitted effect of over 45% in size
Potency is the fitted concentration of half-maximal effect; tags give direction and shape of the fitted curve.

Row | SMILES | Potency
1 | COc1ccc(CC(=O)NC2CCCc3c2[nH]c2ccccc32)cc1 (stereo not given) | inconclusive: 12.6 µM [inhibitor, partial curve, poor fit]
2 | O=C(NC1CCN(Cc2ccc(-c3ccsc3)cc2)C1)c1ccccc1Cl (stereo not given) | inconclusive: 1.41 µM [inhibitor, full curve, poor fit]
3 | CC(C)S(=O)(=O)CCNc1nccc(-c2cccnc2)n1 | inconclusive: 39.8 µM [inhibitor, single point]
4 | O=C(c1ccc2nnc(-c3ccc(Cl)cc3)n2c1)N1CCOCC1 | inactive
5 | O=C(Cc1ccccc1)NCc1nnc2n1C(C(=O)O)CC2 (stereo not given) | inconclusive: 11.2 µM [inhibitor, single point]
6 | CC(C)NC(=O)N1CCN(C(=O)c2cccs2)[C@H](C(=O)N[C@@H](Cc2cccnc2)C(N)=O)C1 | inconclusive: 8.91 µM [inhibitor, single point]
7 | Cc1cccc(N2CCN(C(=O)c3ccc4c(c3)N(C)C3CCCCN3C4=O)CC2)c1C (stereo not given) | inconclusive: 20 µM [inhibitor, single point]
8 | COc1ccccc1-c1cc(C(=O)NCc2c(C)cc(C)[nH]c2=O)c2c(c1)N(C)CCO2 | inconclusive: 50.1 µM [inhibitor, single point]
9 | Clc1ccccc1C1(c2ccnc(NCCc3cccnc3)n2)CCNCC1 | inactive
10 | COc1ccc(CN2C(=O)CO[C@H]3CN(S(=O)(=O)c4ccccc4)C[C@H]32)cc1 | inconclusive: 56.2 µM [inhibitor, single point]
11 | CCOC(=O)c1ccc(N2C(=O)c3[nH]nc(-c4ccccc4)c3C2c2cccs2)cc1 (stereo not given) | inconclusive: 15.8 µM [inhibitor, partial curve, poor fit]
12 | CC1=C[C@@H](CO)[C@H](C(C)C)C[C@H]1CC(=O)NCc1ccc(C(F)(F)F)cc1 | inconclusive: 56.2 µM [inhibitor, single point]
13 | CC1=C[C@@H](CNCc2ccccc2)[C@H](C(C)C)C[C@H]1Cc1nc2c(C)cccc2[nH]1 | inconclusive: 56.2 µM [inhibitor, single point]
14 | C[S+](=O)([O-])NC1CCN(C(=O)c2ccc(-c3cncnc3)cc2)CC1 | inactive
15 | CC1=C[C@@H](CC#N)[C@H](C(C)C)C[C@H]1CC(=O)NCc1ccc(F)cc1 | inactive
16 | CN(C)c1ccc(CN2CCC3(C2)C(=NC2CCCC2)NC(=O)N3c2cc(F)cc(F)c2)cc1 (stereo not given) | inconclusive: 14.1 µM [inhibitor, partial curve, poor fit]
17 | COc1cccc(C(=O)N2CC(F)(F)C[C@H]2c2nc(C)no2)c1OC | inconclusive: 8.91 µM [inhibitor, single point]
18 | COc1cccc(C(=O)N2CCN(C(=O)c3cccc(-c4ccccn4)c3)CC2)c1 | inconclusive: 3.55 µM [inhibitor, single point]
19 | CCOc1ccc(C2Cn3nnc(-c4nc(-c5ccccc5OCC)no4)c3CO2)cc1 (stereo not given) | inactive
20 | Cc1cc(OCCn2c(C3CC(=O)N(Cc4ccc(F)cc4)C3)nc3ccccc32)ccc1Cl (stereo not given) | inconclusive: 17.8 µM [inhibitor, partial curve]
21 | CC(C)c1noc([C@@H]2C[C@H]3C(=O)NCCCCCCN(C(=O)COc4ccccc4)[C@H]3C2)n1 | inconclusive: 0.631 µM [inhibitor, partial curve, poor fit]
22 | COc1ccc(-c2ccc3ncc(Nc4ccncc4)n3n2)cc1OC | inactive

Row | SMILES | Potency
23 | Cc1ccc(C)c(N2CCN(CCCNC(=O)Cn3c(-c4cccs4)cc4ccccc43)CC2)c1 | inconclusive: 39.8 µM [inhibitor, single point]
24 | Cc1cnc(C(=O)N2CCCC(CCc3cccc(F)c3)C2)cn1 (stereo not given) | inactive
25 | COCCCNC(=O)Cn1c(=O)n(-c2cccc(C)c2)c(=O)c2c3c(sc21)CN(C(C)=O)CC3 | inconclusive: 0.158 µM [inhibitor, full curve, poor fit]
26 | COc1cccc(-c2cn3c(n2)N(C(=O)C2CCC2)CCC3)c1 | inactive
27 | O=C(CN1C(=O)C2CCCCN2c2ccc(C(=O)N3CCCC3)cc21)NCc1ccccc1 (stereo not given) | inconclusive: 28.2 µM [inhibitor, single point]
28 | O=C(c1ccc(Oc2ccccc2)cc1)N1CCOCC12CCN(Cc1ccccc1)CC2 | inactive
29 | O=C(Nc1cccnc1)c1ccnc(-c2nnc3ccc(N4CCOCC4)nn23)c1 | inconclusive: 5.01 µM [inhibitor, full curve]
30 | O=C(c1ccncc1)N1CCCC(c2nnc3n2CCNC3)C1 (stereo not given) | inconclusive: 14.1 µM [inhibitor, partial curve, poor fit]
31 | O=C(c1ccccc1Cl)N1CCC2(CC1)C(=O)NCN2Cc1ccc(Cl)cc1 | inactive
32 | COc1ccc(C(=O)N2CCOCC3(CN(Cc4ccccc4)C3)C2)cc1 | inconclusive: 28.2 µM [inhibitor, partial curve, poor fit]
33 | Cc1cc(Nc2cc(NC(=O)c3c(Cl)cccc3Cl)ccn2)nc(N)n1 | inconclusive: 0.961 µM [inhibitor, full curve, poor fit]
34 | COc1cccc(OCC(=O)c2ccc3c(c2)N(CCCC(=O)N2CCOCC2)C(=O)CO3)c1 | inactive
35 | O=C1CN(C(=O)c2csc3nc(-c4ccc(C(F)(F)F)cc4)cn23)CCCN1 | inactive
36 | O=C1N(Cc2ccc(F)cc2)C[C@H]2CN(Cc3ccncc3F)CCN12 | inconclusive: 56.2 µM [inhibitor, single point]
37 | O=C(Cc1ccccc1)N1CCCN(c2ccnc3ccnn23)CC1 | inactive
38 | COc1ccc(CCc2nc3nccc(-c4cccc(OC)c4)n3n2)cc1 | inactive
39 | O=C(Nc1ccc(F)cc1)C1CN(c2ccnc3ccnn23)C1 | inactive
40 | Cc1cc(=O)n(CC(=O)Nc2cccc(C(F)(F)F)c2)c(N2CCC(C)CC2)n1 | inconclusive: 8.91 µM [inhibitor, partial curve, poor fit]
41 | COc1ccccc1Cn1c(=O)c(C(=O)NCc2cccs2)nc2cccnc21 | inactive
42 | COc1ccc(-n2ncc(C(=O)Nc3ccc(C)cc3Cl)c2C2CCN(C(=O)OC(C)(C)C)CC2)cc1 | inconclusive: 39.8 µM [inhibitor, single point]
43 | CCN1c2cc(C(=O)Nc3ccc(Cl)cc3)ccc2C(=O)N2CCCCC21 (stereo not given) | inconclusive: 39.8 µM [inhibitor, single point]
44 | CCc1ccc(-c2[nH]c3c(c2-c2c(-n4cccc4)n(C)c(=O)[nH]c2=O)c(=O)[nH]c(=O)n3C)cc1 | inconclusive: 2 µM [inhibitor, full curve]

Row | SMILES | Potency
45 | Cc1nn2c(c1-c1ccccc1Oc1ccccc1)N(C(=O)Cc1cccc(F)c1)CCC2 | inconclusive: 39.8 µM [inhibitor, single point]
46 | COc1ccc(C(=O)N[C@H]2C[C@@H](c3nc(-c4ccccc4)no3)N(C)C2)cc1 | inactive
47 | C[C@]1(CO)C2CC[C@@H](O)[C@@H](CC(=O)NCc3cccs3)[C@]2(C)CC[C@H]1OC(=O)NC1CCCCC1 (stereo not given in full) | inactive
48 | Cc1cccc(C(=O)N2C[C@@H](CO)[C@H](c3ccccn3)C2)n1 | inconclusive: 39.8 µM [inhibitor, single point]
49 | COc1ccc(-c2cc(N3CCC(NC(=O)COc4ccccc4C)CC3)n[nH]2)cc1 | inconclusive: 7.08 µM [inhibitor, partial curve, poor fit]
50 | Cc1ccc(-c2noc(-c3cccnc3NCc3ccc(Cl)cc3)n2)cc1 | inconclusive: 3.16 µM [inhibitor, full curve, poor fit]
51 | CCOC(=O)c1cc(-c2ccc(C)cc2)n(CCC(=O)NCc2ccccc2)c1C | inconclusive: 39.8 µM [inhibitor, single point]
52 | COc1cccc(CC(=O)Nc2ccc3c(c2)CN(Cc2cccc(OC)c2)C(=O)C(C)O3)c1 (stereo not given) | inconclusive: 35.5 µM [inhibitor, single point]
53 | CC(C)NC(=O)NC1CCN(C(=O)c2ccc(-c3ncccc3C#N)cc2)CC1 | inactive
54 | Fc1ccc(-c2noc(-c3ncn4c3COC(c3ccccc3Cl)C4)n2)cc1 (stereo not given) | inactive
55 | COc1ccc(-c2nc(C(C)C)nc3c2CCN(C(=O)C(C)(C)C)CC3)cc1 | inactive
56 | Cc1cccc(-c2noc([C@@H]3Cc4nc[nH]c4CN3C(=O)Nc3ccccc3)n2)c1 | inconclusive: 31.6 µM [inhibitor, partial curve, poor fit]
57 | O=C(C1CC=CCC1)N1CC(c2noc(C3CCCN3CC3CC3)n2)C1 (stereo not given) | inconclusive: 35.5 µM [inhibitor, single point]
58 | CCCCN1C(=O)C(O)(c2c(C)[nH]c3ccccc23)c2cc(Br)ccc21 (stereo not given) | inconclusive: 39.8 µM [inhibitor, single point]
59 | COCCn1c(C)cnc1CC1CCCN(Cc2cccc(F)c2)C1 (stereo not given) | inactive
60 | CC(C)CN1C(=O)c2cccn2CC1CNC(=O)Cc1cccc(F)c1 (stereo not given) | inconclusive: 39.8 µM [inhibitor, single point]
61 | O=C(NC1CCN(c2nccc(Nc3ccccc3Cl)n2)CC1)c1cccc(Cl)c1 | inconclusive: 39.8 µM [inhibitor, single point]
62 | COCc1nc(-c2ccc(OC3CN(C(=O)c4ccc(OC)cc4)C3)cc2)no1 | inconclusive: 7.94 µM [inhibitor, full curve, poor fit]
63 | Fc1cccc(-n2cc(CN3CCCC4(CCOC4)C3)cn2)c1 (stereo not given) | inactive
64 | COCCN1CCOC[C@H]2CCN(C(=O)c3ccoc3)C[C@H]21 | inconclusive: 39.8 µM [inhibitor, single point]
65 | O=C(c1cccc(Br)c1)N1CCN(c2cc(-c3ccc(F)cc3)[nH]n2)CC1 | inconclusive: 10 µM [inhibitor, partial curve, poor fit]
